Laboratory results from PubChem BioAssay AID445 (National Center for Advancing Translational Sciences (NCATS), 2006).
The campaign covered roughly 110,000 compounds. About 40 (0.04%) were called active. The inconclusive results got no clear call from the source; some entries with a clear call stand among them for comparison. Calls follow the shape of the dose curve; as a rule, active = well fitted curve in the direction sought with a large enough effect in the signal ratio (not every such curve was filed as active); inconclusive = small, poorly fitted or top-dose-only effect, or a change in a side signal; inactive = flat fitted curve, though single readings scatter; the % refers to the signal ratio. Where the call is inconclusive, the potency comes from a doubtful curve fit.

Assay: IkB Signaling;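 as to IkBa stabilization activation: 0% = basal untreated cells and 100% = reference inhibitor full response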
Conditions: ABC-DLBCL IkBa-CBG/CBR dual luciferase ratio (green luciferase fused to IkBa over red control in OCI-Ly3 lymphoma cells), 4 h; IkBa stabilization activation: at 57.1 µM (top of the series), scaled: untreated 0%, proteasome inhibitor 100% unless noted
How it was run: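 Curves were fitted separately to fusion (green), unfused (red) and ratio luminescence, then classed by r2, magnitude and activity. Cells: OCI-Ly3, 4 h compound plus doxycycline at 37C; 10 uM MG-132 defined full response.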
Potency is read from the fitted curve at half-maximal effect.

Compound	IkBa stabilization activation	Potency
Cc1cccc(-c2nc3c(cnn3-c3ccccc3)c(=O)n2-c2cccc(Cl)c2)c1	inconclusive: 16.2% [signal inhibitor]	–
CC1CCCCN1S(=O)(=O)c1ccc(F)c(C(=O)Nc2ccccc2C(F)(F)F)c1 (stereo not drawn)	inconclusive: 0.641% [signal inhibitor]	–
CCOC(=O)C1CCN(c2cc3c(cc2NC(=O)c2ccc(OC)c(OC)c2)n(C)c(=O)n3C)CC1	inconclusive: 10.3% [signal inhibitor]	–
O=C(O)c1cccc(Nc2ncnc3ccccc23)c1	–	inconclusive: 20 µM [signal inhibitor, partial curve]
CCCc1ccc(-c2ccc(C(=O)O)cc2)nc1	–	inconclusive: 3.98 µM [signal inhibitor, partial curve]
Cc1cn2c(=O)cc(COc3cc(C)c(Cl)c(C)c3)nc2s1	inactive: -1.55%	–
CCC(CC)C(=O)NCc1ccc2c(c1)cc(C)n2C	inactive: -2.29%	–
CCOc1cc2sc(N3CCC(C(=O)Nc4ccc(C(C)C)cc4)CC3)nc2cc1Br	inconclusive: 15% [signal inhibitor]	–
CCOc1ccc(NC(=O)CN(c2ccccc2OCC)S(=O)(=O)c2ccccc2)cc1	inconclusive: 5.31% [signal inhibitor]	–
COc1cccc(-c2cc(C(=O)Nc3ccccc3SC)no2)c1	–	inconclusive: 0.0631 µM [signal inhibitor, full curve]
Cc1cc(Cl)ccc1NS(=O)(=O)c1ccc2c(c1)CCN2S(C)(=O)=O	inconclusive: 0.619% [signal inhibitor]	–
COc1ccc(S(=O)(=O)N2CCN(Cc3nc4ccc(C)cc4o3)CC2)cc1OC	inconclusive: 0.363% [signal inhibitor]	–
Cc1cccc(CNC(=O)Cc2csc3ccccc23)c1	inactive: 1.64%	–
CC1CC(C)CN(c2ncc3c(n2)CC(c2ccccc2)CC3=O)C1 (stereo not drawn)	inconclusive: -0.492% [signal activator]	–
Cc1noc(NS(=O)(=O)c2ccc(NC(=O)COc3ccc(Cl)cc3Cl)cc2)c1C	inactive: 3.03%	–
COC(=O)Cc1[nH]nc2c1C(C1C=CCCC1)C(C#N)=C(N)O2 (stereo not drawn)	–	inconclusive: 25.1 µM [signal inhibitor, partial curve]
O=C(NCc1cccs1)c1nn(-c2ccccc2)nc1CO	inconclusive: -0.86% [signal inhibitor]	–
Oc1ccc(CN2CCN(Cc3ccccc3)CC2)c2cccnc12	inactive: 0.706%	–
COc1ccc(CCNC(=O)Cc2c(C)c3c(cc(C)c4c(C)c(C)oc43)oc2=O)cc1OC	inconclusive: -0.245% [signal inhibitor]	–
Cc1ccc(NC(=O)Cn2c(=O)n(-c3ccc(C)cc3)c(=O)c3ccc(C(=O)NCc4ccccc4Cl)cc32)cc1	inconclusive: 0.0356% [signal inhibitor]	–
Cc1ccc(S(=O)(=O)c2nc(-c3ccco3)oc2SC(C)C)cc1	inconclusive: 3.63% [signal inhibitor]	–
CC(C)Sc1nc2c(cnn2-c2ccc(F)cc2)c(=O)[nH]1	inactive: -3.13%	–
COC(=O)COc1cccc(NS(=O)(=O)c2ccc(NC(C)=O)cc2)c1	inactive: 7.7%	–

Compound	IkBa stabilization activation	Potency
Cc1cc(C)cc(NC(=O)c2sc3nc(-c4ccccc4)cn3c2C)c1	inconclusive: 5.49% [signal inhibitor]	–
CC(=O)Nc1nonc1-c1nnc(SCc2ccc(F)cc2Cl)n1C	inconclusive: 1.13% [signal inhibitor]	–
CCOC(=O)c1cccc(NC(=O)CCS(=O)(=O)c2ccc(Br)s2)c1	inconclusive: 7.28% [signal inhibitor]	–
COc1ccc(NC(=O)c2cc(-c3ccc4c(c3)OCO4)on2)c(OC)c1	inconclusive: 0.406% [signal inhibitor]	–
COc1ccc(/C=C/C(=O)Nc2ccc3nc(N4CCC(C)CC4)cc(C)c3c2)cc1OC	inconclusive: 4.05% [signal inhibitor]	–
Cn1c(=O)c2c(nc(SCC(=O)Nc3ccc(F)cc3F)n2Cc2ccccc2)n(C)c1=O	inconclusive: 2.85% [signal inhibitor]	–
O=C(Nc1cccc(F)c1)N1CCCC2(CCN(C(=O)c3csnn3)CC2)C1	inactive: 0.695% [at 11.4 µM, scaled: untreated 0%, proteasome inhibitor 100%]	–
CC1(C(=O)NC2CCCCC2)Cc2ccccc2C(=O)N1Cc1ccc(Cl)cc1 (stereo not drawn)	inconclusive: 2.94% [signal inhibitor]	–
O=C(COc1ccccc1)Nc1ccc(C(=O)OCc2cc(=O)n3nc(C4CC4)sc3n2)cc1	inactive: 0.955%	–
Cc1nc2nc(SCC(=O)NCc3ccccc3)nn2c(C)c1Cc1ccccc1Cl	inconclusive: 1.39% [signal inhibitor]	–
Cc1ccc(OCCSc2nc3ccc(NC(=O)COc4ccc(F)cc4)cc3s2)cc1	inactive: -2.94%	–
O=c1oc2ccccc2n1CCn1c2ccccc2c2nc3ccccc3nc21	inactive: 0.0105%	–
O=C(CN1CCCN(Cc2ccccc2Cl)S1(=O)=O)Nc1ccc2c(c1)OCCO2	inconclusive: 1.69% [signal inhibitor]	–
CC1=C/C(=N/O)C([C@H]2C=C(C)CC(C)(C)[C@@H]2O)C(C)(C)C1 (stereo partly drawn)	inactive: 0.422% [at 11.4 µM, scaled: untreated 0%, proteasome inhibitor 100%]	–
CN(Cc1ccco1)c1cc(-c2cccc(NS(C)(=O)=O)c2)ncn1	inactive: -2.25% [at 11.4 µM, scaled: untreated 0%, proteasome inhibitor 100%]	–
CCN(CC)c1ccc(NC(=O)Nc2cccc(C(C)=O)c2)cc1	inconclusive: 1.71% [signal inhibitor]	–
CCn1c2ccccc2c2nnc(N3CCN(c4cccc(C)c4C)CC3)nc21	inconclusive: -3.43% [signal inhibitor]	–
O=C(NCCCN1CCOCC1)c1ccc2c(c1)N(Cc1ccccc1)C(=O)c1ccccc1S2	inconclusive: 3.84% [signal inhibitor]	–
CCOC(=O)C1=C(C)NC(C)=C(C(=O)OC)[C@@H]1c1cccc(Cl)c1Cl	inactive: -0.0988% [at 25.6 µM, scaled: untreated 0%, proteasome inhibitor 100%]	–
CCCN1Cc2cccc(C(=O)Nc3ccc4c(c3)OCO4)c2C1=O	inactive: -2.35%	–
CC1=C(C(=O)Nc2ccccc2)C(c2ccco2)C(C#N)=C(SCc2ccccc2)N1 (stereo not drawn)	inconclusive: 6.52% [signal inhibitor]	–
COc1ccc(-c2nc(-c3ccc(NC(=O)c4ccc(Br)o4)cc3)no2)cc1OC	inactive: 0.706%	–
CCOc1ccc(NC(=O)NC(C)c2c(-n3cccc3)sc(C)c2C)cc1 (stereo not drawn)	inconclusive: -0.263% [signal inhibitor]	–

Compound	IkBa stabilization activation	Potency
Cc1cccc(OCCCCn2nnc3sc4c(c3c2=O)CCC(C)C4)c1 (stereo not drawn)	inconclusive: 2.61% [signal inhibitor]	–
CCOC(=O)CSc1nc2sc3c(c2c(=O)n1Cc1ccccc1)CC(C)CC3 (stereo not drawn)	inactive: 2.47%	–
COc1ccccc1NC(=O)Cn1c(=O)n(Cc2ccccc2)c(=O)c2ccccc21	inconclusive: 3.4% [signal inhibitor]	–
CC(=O)N[C@@H](Cc1c[nH]c2ccccc12)C(=O)OCc1cc(C(F)(F)F)cc(C(F)(F)F)c1	inconclusive: 0.942% [signal inhibitor]	–
COc1cccc2c1Oc1nc(-c3ccccc3)nc(SCC(=O)N3CCCCC3)c1C2	inconclusive: 1.79% [signal inhibitor]	–
O=C(CCn1c(=O)c2cccn2c2ccc(F)cc21)NCCc1ccccc1Cl	inactive: -0.183%	–
COC(=O)c1ccc(NC(=O)Nc2nnc(N(C)C3CCCCC3)s2)cc1	inconclusive: 7.1% [signal inhibitor]	–
N#CC1=C(SCc2ccccc2)NC(=O)C(C#N)C12CCCC2 (stereo not drawn)	inconclusive: 4.13% [signal inhibitor]	–
Cc1cc(NC(=O)CS(=O)(=O)c2cn(Cc3ccccc3Cl)c3ccccc23)no1	inconclusive: 7.48% [signal inhibitor]	–
COC(=O)c1ccc(NC(=O)Cc2coc3cc(C)ccc23)cc1	inconclusive: -0.783% [signal inhibitor]	–
COc1ccc(-c2nc3nc(C)cc(Nc4ccc(C(C)=O)cc4)n3n2)cc1	inactive: 0.995%	–
CCOc1ccc(-c2ccc(NS(=O)(=O)c3cc(C)c(C)cc3C)cc2)nn1	inconclusive: 4.09% [signal inhibitor]	–
O=C1CCCC2=C1C(c1ccco1)Nc1ccc(C(=O)c3ccccc3)cc1N2 (stereo not drawn)	–	inconclusive: 15.8 µM [signal inhibitor, partial curve]
C(=Nc1ccc2c(c1)Cc1ccccc1-2)c1ccccn1	inactive: 4.64% [at 11.4 µM, scaled: untreated 0%, proteasome inhibitor 100%]	–
CCN(C(=O)COc1cc(=O)n(C)c2ccccc12)c1cccc(C(F)(F)F)c1	inconclusive: -1.3% [signal inhibitor]	–
Cc1nn(-c2ccccc2)c(C)c1C(=O)OCC(=O)N1CCN(S(=O)(=O)c2ccccc2)CC1	inconclusive: 13.2% [signal inhibitor]	–
Cc1ccccc1CN1CCc2nc(Nc3ccc4c(c3)OCCO4)ncc2C1	inconclusive: 4.81% [signal inhibitor]	–
CCOc1ccc(CCNC(=O)c2ccc(CS(=O)(=O)Cc3ccccc3Cl)o2)cc1OCC	inconclusive: -1.17% [signal inhibitor]	–
Oc1cccc(Nc2ccccc2)c1	inactive: 0.583%	–
CCOc1ccc(C(=O)Nc2ccc(-c3nc4cc(CC)ccc4o3)cc2)cc1	inconclusive: 7.21% [signal inhibitor]	–
O=C(c1cc2c(=O)[nH]c3ccccc3c2s1)N1CCN(c2ccc(F)cc2)CC1	inconclusive: 5.98% [signal inhibitor]	–
CC(NC(=O)CCn1c(=O)c2cccn2c2ccc(F)cc21)c1ccccc1 (stereo not drawn)	inconclusive: 4.85% [signal inhibitor]	–
